According to PubChem BioAssay (Tox21):
This list was built around the results that the source calls inconclusive (neither active nor inactive); the mix of calls is not that of the screen. For some of these results: Where the call is inconclusive, the potency comes from a doubtful curve fit. More than one record can exist for a structure, and the calls need not agree. Active and inactive are the calls of the source. Unless noted, calls follow the shape of the dose curve; as a rule, active = well fitted curve in the direction sought with a large enough effect in the repeat runs; inconclusive = weak or mixed curves; inactive = no such curve, though single readings can be large; an effect the other way counts as inactive or inconclusive.

What was measured:
[1] = biological target: Vitamin D3 receptor (Homo sapiens) (UniProt P11473); experiment: qHTS assay to identify small molecule agonists of the vitamin D receptor (VDR) signaling pathway (AID 743222; calls by dose curve; also: potency is read from the fitted curve at half-maximal effect); settings: HEK293T VDR-UAS-bla, beta-lactamase FRET ratio, 16 h; activation: at 63.5 µM (top of the series) unless noted
How it was run: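 In VDR-bla cells, compound-induced beta-lactamase expression is quantified by FRET substrate fluorescence. Treatment lasts 16 h at 37C; substrate develops 2 h at room temperature.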

[2] = qHTS RealTime-Glo MT Cell Viability Assay in HEK293 cells - 8 hour (AID 1224887); also: nearly all actives have a fitted effect of over 50% in size; also: potency is read from the fitted curve at half-maximal effect
How it was run: (§1)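 Viable HEK293 cells reduce a cell-permeant prosubstrate; the product diffuses out and is consumed by NanoLuc in the medium to give light. Compounds went in after a 5 h incubation and plates were read over the treatment course.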

[3] = qHTS assay to identify small molecule agonists of the androgen receptor (AR) signaling pathway in the presence of an antagonist - cell viability counter screen (AID 1259379); also: nearly all actives have a fitted effect of over 25% in size; also: potency is read from the fitted curve at half-maximal effect
How it was run: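 Seed MDA-kb2 at 3,000 cells/well; incubate 5 hr, 37C, 0% CO2. Add nilutamide to 3.0uM final, then pin compounds at 15 concentrations. Incubate 16 hr. Add CellTiter-Fluor at 15 hr, read fluorescence after 1 hr.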

[4] = Caspase-3/7 induction in HepG2 cells by small molecules, qHTS cell viability counter screen (AID 1346981); also: nearly all actives have a fitted effect of over 30% in size; also: potency is read from the fitted curve at half-maximal effect
How it was run: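 Viability determined by CellTiter-Fluor fluorescence in HepG2 wells also used for the luminescent Caspase-Glo 3/7 read. Compounds were present for 16 hr at 37 C, 5% CO2 before reagent addition.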

[5] = qHTS assay to identify small molecule agonists of H2AX (AID 1224845; active = well fitted activation curve with a large enough effect in the signal ratio in the repeat runs, not every such curve was filed as active; inconclusive = weak or mixed curves; the % refers to the signal ratio; also: potency is read from the fitted curve at half-maximal effect); settings: CHO-K1 phospho-H2AX Ser139 HTRF, 3 h; activation (H2AX phosphorylation): at 154 µM (top of the series) unless noted
How it was run: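 Phospho-H2AX Ser139 measured by HTRF (ex 320 nm; em 665 and 620 nm) after 24 hr antibody incubation. Compounds, 15 concentrations, 0.76% DMSO, were applied to CHO-K1 cells for 3hr at 37C before lysis.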

[6] = A CellTox Green Cytotoxicity Assay to monitor cytotoxicity in HepG2 cells - 24 hour (AID 1224878); also: nearly all actives have a fitted effect of over 45% in size; also: potency is read from the fitted curve at half-maximal effect
How it was run: (§2)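 Using 1536-well format, dye-containing HepG2 suspension was seeded, allowed 5 h at 37 C/5% CO2, dosed by pintool with compounds, positive and negative controls, and imaged for fluorescence across 40 h.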

[7] = qHTS RealTime-Glo MT Cell Viability Assay in HEK293 cells - 16 hour (AID 1224872); also: nearly all actives have a fitted effect of over 50% in size; also: potency is read from the fitted curve at half-maximal effect; as to activity change, negative = cytotoxicity: top concentration of the series differs between compounds; % is scaled to controls: 0 for no effect and ±100 for the full control effect
How it was run: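 Homogeneous bioluminescent viability format in HEK293 cells (600 cells/well). Following 5 h at 37 C/5% CO2, 23 nL compound was pintooled; the signal was measured repeatedly during 40 h incubation.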

[8] = biological target: Androgen receptor (Homo sapiens) (UniProt P10275); experiment: qHTS assay to identify small molecule antagonists of the androgen receptor (AR) signaling pathway (AID 743035; active = well fitted inhibition curve with a large enough effect in the signal ratio in the repeat runs, not every such curve was filed as active; inconclusive = weak or mixed curves, or effect the other way; inactive = no such curve, though single readings can be large or run the other way; the % refers to the signal ratio; also: potency is read from the fitted curve at half-maximal effect; as to activity change, negative = inhibition: % is scaled to controls: 0 for no effect and ±100 for the full control effect); settings: HEK293 AR-UAS-bla, R1881-stimulated, beta-lactamase FRET, 16 h; activity change, negative = inhibition: at 58.5 µM (top of the series) unless noted
How it was run: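 Beta-lactamase FRET read (2 h RT incubation with LiveBLAzer B/G) following 16 h of compound plus R1881 treatment of AR-UAS-bla HEK293 cells, which had been pre-incubated 4 h at 37C.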

[9] = Caspase-3/7 induction in CHO-K1 cells by small molecules, qHTS cell viability counter screen (AID 1346979); also: nearly all actives have a fitted effect of over 35% in size; also: potency is read from the fitted curve at half-maximal effect
How it was run: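 Cells (CHO-K1, wild type) are plated at 1,500 per well and incubated 5hr. Test compounds in DMSO are then pinned in, followed by 16hr at 37C and 5% CO2. Viability is read by CellTiter-Fluor fluorescence after 1hr.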

[10] = qHTS assay to identify small molecule agonists of H2AX - cell viability counter screen (AID 1224847; calls by dose curve; also: top concentration of the series differs between compounds; % is scaled to controls: 0 for no effect and ±100 for the full control effect; nearly all actives have a fitted effect of over 30% in size)
How it was run: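 Cells plated first: CHO-K1, 1000 per well in 10% FBS medium, incubated overnight at 37C. Then 15-point compound titration added (final DMSO 0.76%) for 3 hr. Finally CellTiter-Glo added and luminescence read.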

[11] = qHTS RealTime-Glo MT Cell Viability Assay in HEK293 cells - 40 hour (AID 1224874); settings: RealTime-Glo luminescence; max response: stronger effect = lower value; also: nearly all actives have a fitted effect of over 50% in size; also: potency is read from the fitted curve at half-maximal effect
How it was run: as §1

[12] = A CellTox Green Cytotoxicity Assay to monitor cytotoxicity in HepG2 cells - 40 hour (AID 1224879); also: nearly all actives have a fitted effect of over 40% in size; also: potency is read from the fitted curve at half-maximal effect
How it was run: as §2

[13] = qHTS assay to identify small molecule agonists of the vitamin D receptor (VDR) signaling pathway - cell viability counter screen (AID 743224); also: % is scaled to controls: 0 for no effect and ±100 for the full control effect; nearly all actives have a fitted effect of over 50% in size
How it was run: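 Plated VDR-bla cells (4 h, 37C) received compound, incubated 16 h, then LiveBLAzer substrate 2 h RT; CellTiter-Glo added afterwards, luminescence read at 30 min.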

[14] = biological target: Bile acid receptor (Homo sapiens) (UniProt Q96RI1); experiment: qHTS assay to identify small molecule antagonists of the farnesoid-X-receptor (FXR) signaling pathway (AID 743217; active = well fitted inhibition curve with a large enough effect in the signal ratio in the repeat runs, not every such curve was filed as active; inconclusive = weak or mixed curves, or effect the other way; inactive = no such curve, though single readings can be large or run the other way; the % refers to the signal ratio; also: % is scaled to controls: 0 for no effect and ±100 for the full control effect); settings: HEK293T FXR-UAS-bla, beta-lactamase ratio, CDCA-stimulated, 16 h; activity change, negative = inhibition: at 62.6 µM (top of the series) unless noted
How it was run: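 GeneBLAzer FXR-UAS-bla HEK 293T, CDCA-stimulated (50 uM final). Compound treatment 16 h, 37 °C. Detection: beta-lactamase cleavage of B/G FRET substrate, fluorescence.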

[15] = qHTS assay to identify small molecule antagonists of the androgen receptor (AR) signaling pathway - cell viability counter screen (AID 743033; also: nearly all actives have a fitted effect of over 45% in size; also: potency is read from the fitted curve at half-maximal effect); settings: AR-bla HEK293 viability, CellTiter-Glo luminescence, 16 h; activity change, negative = cytotoxicity: at 58.5 µM (top of the series) unless noted
[16] = biological target: Peroxisome proliferator-activated receptor gamma (Homo sapiens) (UniProt P37231); experiment: qHTS assay to identify small molecule agonists of the peroxisome proliferator-activated receptor gamma (PPARg) signaling pathway (AID 743094; active = well fitted activation curve with a large enough effect in the signal ratio in the repeat runs, not every such curve was filed as active; inconclusive = weak or mixed curves, or effect the other way; inactive = no such curve, though single readings can be large or run the other way; the % refers to the signal ratio; also: % is scaled to controls: 0 for no effect and ±100 for the full control effect); settings: HEK293H PPARg-UAS-bla, beta-lactamase FRET ratio, 17 h; activation: at 57 µM (top of the series) unless noted
How it was run: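 Compounds dissolved in DMSO were added to PPARg UAS-bla HEK293H cells for 17 h at 37C, and reporter expression was quantified by fluorescence intensity after 1 h with LiveBLAzer B/G FRET substrate.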

[17] = biological target: Thyrotropin receptor (Homo sapiens) (UniProt P16473); experiment: qHTS assay to identify small molecule antagonists of the thyroid stimulating hormone receptor (TSHR) signaling pathway (AID 1259385; calls by dose curve; also: nearly all actives have a fitted effect of over 20% in size; also: potency is read from the fitted curve at half-maximal effect); settings: TSHR-HEK293 cAMP HTRF, TSH-stimulated antagonist mode; activity change, negative = inhibition: at 92.4 µM (top of the series) unless noted
How it was run: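 Antagonist mode: compound-treated TSHR-expressing HEK293 cells were stimulated with 1.5 ng/mL TSH (final) in presence of Ro20-1724 for 30 min at RT. HTRF cAMP detection after 1 h; each compound tested at 15 concentrations, triplicate.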

[18] = qHTS assay to identify small molecule antagonists of the thyroid receptor (TR) signaling pathway (AID 743065); also: % is scaled to controls: 0 for no effect and ±100 for the full control effect; nearly all actives have a fitted effect of over 55% in size
How it was run: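 Antagonism measured as loss of luciferase signal in GH3 cells stably carrying a TRE-luciferase reporter, co-treated with compound and T3 (1 nM final) for 23.5 h at 37 C. Viability was read in the same well by CellTiter-Fluor.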

[19] = qHTS assay to identify small molecule antagonists of the progesterone receptor (PR) signaling pathway - cell viability counter screen (AID 1346798)
How it was run: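 HEK293T PR-UAS-bla, 2% charcoal-stripped FBS; 4 hr pre-plate; cpd + R5020, 16 h 37C; LiveBLAzer read first; then CellTiter-Glo 30 min RT, luminescence.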
Tags tell the direction and shape of the fitted curve or compound fluorescence and quenching.

UniProt Q96RI1, sequence (Q96RI1 whole entry, looked up): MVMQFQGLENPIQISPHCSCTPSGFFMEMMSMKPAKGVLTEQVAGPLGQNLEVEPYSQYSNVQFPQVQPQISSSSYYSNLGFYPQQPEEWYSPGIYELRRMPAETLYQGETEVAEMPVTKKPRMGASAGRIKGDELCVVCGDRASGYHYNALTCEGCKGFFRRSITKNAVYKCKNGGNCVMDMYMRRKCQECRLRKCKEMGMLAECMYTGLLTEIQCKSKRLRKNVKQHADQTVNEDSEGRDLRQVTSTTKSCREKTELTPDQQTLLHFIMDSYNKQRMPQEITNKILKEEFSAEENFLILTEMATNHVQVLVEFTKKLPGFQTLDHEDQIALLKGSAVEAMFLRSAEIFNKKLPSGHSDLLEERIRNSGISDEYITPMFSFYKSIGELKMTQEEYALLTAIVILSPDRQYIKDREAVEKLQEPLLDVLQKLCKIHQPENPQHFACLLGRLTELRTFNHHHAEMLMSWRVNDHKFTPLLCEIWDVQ
UniProt P10275, sequence (P10275 whole entry, looked up): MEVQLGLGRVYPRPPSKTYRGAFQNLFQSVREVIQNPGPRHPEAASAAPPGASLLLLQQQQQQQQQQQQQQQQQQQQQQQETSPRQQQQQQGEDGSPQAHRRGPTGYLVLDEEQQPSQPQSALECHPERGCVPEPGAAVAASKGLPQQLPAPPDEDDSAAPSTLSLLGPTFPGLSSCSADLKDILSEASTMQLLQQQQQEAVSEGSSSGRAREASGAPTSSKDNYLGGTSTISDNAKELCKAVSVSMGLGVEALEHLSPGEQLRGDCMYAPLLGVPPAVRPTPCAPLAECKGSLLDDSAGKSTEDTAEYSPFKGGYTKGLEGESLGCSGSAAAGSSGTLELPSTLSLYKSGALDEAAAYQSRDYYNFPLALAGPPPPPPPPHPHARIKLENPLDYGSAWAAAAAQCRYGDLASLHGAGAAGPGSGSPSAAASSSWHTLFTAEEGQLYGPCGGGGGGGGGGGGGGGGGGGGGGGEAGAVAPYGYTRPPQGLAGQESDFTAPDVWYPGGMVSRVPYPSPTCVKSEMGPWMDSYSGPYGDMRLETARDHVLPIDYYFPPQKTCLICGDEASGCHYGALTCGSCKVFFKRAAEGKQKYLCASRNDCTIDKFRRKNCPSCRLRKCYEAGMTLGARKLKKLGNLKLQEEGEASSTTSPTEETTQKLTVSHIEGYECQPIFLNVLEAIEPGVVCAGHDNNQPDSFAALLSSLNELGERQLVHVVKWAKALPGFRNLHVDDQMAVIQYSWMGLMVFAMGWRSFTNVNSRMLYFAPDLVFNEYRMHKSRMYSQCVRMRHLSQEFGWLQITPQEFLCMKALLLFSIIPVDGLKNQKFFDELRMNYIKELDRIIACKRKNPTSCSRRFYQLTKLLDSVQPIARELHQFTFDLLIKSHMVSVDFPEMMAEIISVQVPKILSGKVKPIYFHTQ
UniProt P11473, sequence (P11473 whole entry, looked up): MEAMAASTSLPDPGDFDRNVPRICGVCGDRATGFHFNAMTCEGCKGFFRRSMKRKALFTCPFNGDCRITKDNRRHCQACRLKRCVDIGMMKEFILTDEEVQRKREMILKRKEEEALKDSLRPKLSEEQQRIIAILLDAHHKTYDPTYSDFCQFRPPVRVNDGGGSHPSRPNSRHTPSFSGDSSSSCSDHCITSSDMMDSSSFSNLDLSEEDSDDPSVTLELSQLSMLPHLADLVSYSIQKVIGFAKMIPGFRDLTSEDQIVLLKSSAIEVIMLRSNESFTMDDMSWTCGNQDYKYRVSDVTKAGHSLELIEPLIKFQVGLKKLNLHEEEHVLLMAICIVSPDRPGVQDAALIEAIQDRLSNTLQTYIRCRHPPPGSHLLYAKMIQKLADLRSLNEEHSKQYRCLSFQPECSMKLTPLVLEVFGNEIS
UniProt P16473, sequence (P16473 whole entry, looked up): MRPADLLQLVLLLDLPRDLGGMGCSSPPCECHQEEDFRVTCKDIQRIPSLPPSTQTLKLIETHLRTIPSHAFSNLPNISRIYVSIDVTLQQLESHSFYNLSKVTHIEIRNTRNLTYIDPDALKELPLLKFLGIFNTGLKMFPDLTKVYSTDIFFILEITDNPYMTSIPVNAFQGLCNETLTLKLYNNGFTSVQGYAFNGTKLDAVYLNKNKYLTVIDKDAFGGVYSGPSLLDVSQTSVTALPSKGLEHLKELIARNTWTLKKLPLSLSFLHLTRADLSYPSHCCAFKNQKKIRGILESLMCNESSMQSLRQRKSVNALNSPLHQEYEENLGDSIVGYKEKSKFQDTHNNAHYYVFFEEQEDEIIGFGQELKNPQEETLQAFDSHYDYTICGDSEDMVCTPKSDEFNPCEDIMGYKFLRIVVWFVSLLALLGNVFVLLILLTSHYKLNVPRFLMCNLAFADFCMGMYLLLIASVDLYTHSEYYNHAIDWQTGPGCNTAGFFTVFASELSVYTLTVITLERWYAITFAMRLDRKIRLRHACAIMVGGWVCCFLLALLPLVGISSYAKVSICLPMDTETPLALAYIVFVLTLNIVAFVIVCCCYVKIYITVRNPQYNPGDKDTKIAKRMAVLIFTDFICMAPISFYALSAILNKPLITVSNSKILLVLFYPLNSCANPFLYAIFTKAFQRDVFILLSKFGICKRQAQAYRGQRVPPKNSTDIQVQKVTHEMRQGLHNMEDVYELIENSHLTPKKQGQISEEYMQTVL
UniProt P37231, sequence (P37231 whole entry, looked up): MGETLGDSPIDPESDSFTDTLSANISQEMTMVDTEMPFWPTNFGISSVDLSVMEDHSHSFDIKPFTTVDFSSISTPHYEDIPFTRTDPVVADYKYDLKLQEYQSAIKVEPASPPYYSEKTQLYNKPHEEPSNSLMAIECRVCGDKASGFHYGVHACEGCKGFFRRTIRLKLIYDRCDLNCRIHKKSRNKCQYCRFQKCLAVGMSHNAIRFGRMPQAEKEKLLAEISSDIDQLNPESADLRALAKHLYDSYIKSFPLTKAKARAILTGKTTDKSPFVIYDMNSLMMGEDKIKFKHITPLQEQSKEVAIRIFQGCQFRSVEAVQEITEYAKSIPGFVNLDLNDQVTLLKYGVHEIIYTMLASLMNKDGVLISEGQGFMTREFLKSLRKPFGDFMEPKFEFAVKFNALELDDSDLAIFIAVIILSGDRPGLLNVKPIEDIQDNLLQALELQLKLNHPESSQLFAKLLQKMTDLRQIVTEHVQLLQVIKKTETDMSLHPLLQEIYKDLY

CCCCCCCC/C=C\CCCCCCCC(=O)OC(CO)CO
Potency [1]: inconclusive: 21.9 µM [rising, partial curve, poor fit]
Potency [2]: inconclusive: 34.7 µM [cytotoxic, partial curve, poor fit]
Potency [3]: inconclusive: 48.6 µM [cytotoxic, partial curve, poor fit]
Potency [4]: inconclusive: 24.3 µM [cytotoxic]

COc1ccc(NC(C)=O)cc1N
Potency [5]: inconclusive: 100 µM [falling, single point]
Potency [6]: active: 49 µM

FC(F)(F)c1ccc(Cl)cc1Cl
Potency [7]: inactive

CCNC(=O)/C=C/c1cccc(Br)c1
activity change, negative = inhibition [8]: inconclusive: -37%
Potency [1]: inactive
Potency [2]: inactive
Potency [9]: inactive

NNC(=O)CCCCC(=O)NN
Potency [10]: inactive
Potency [2]: inactive

N[C@@H]1CONC1=O
Potency [7]: inactive
Potency [11]: inconclusive: 0.535 µM [cytotoxic, single point]
Potency [6]: inconclusive: 10.7 µM [activator, single point]
Potency [12]: inconclusive: 10.7 µM [activator, single point]
Potency [9]: inactive

C=CC(OCC)OCC
Potency [12]: inactive

CC(CC=O)CC(C)(C)C (centres undefined)
Potency [13]: inactive
max response [11]: inactive: -0.119%

CCCCC(CC)CNC(=O)CC(C)OC(=O)CCC(=O)O (centres undefined)
Potency [14]: inactive
Potency [12]: inconclusive: 26.8 µM [activator, single point]

Nc1ccc2cc(S(=O)(=O)O)cc(O)c2c1
Potency [15]: inactive
Potency [16]: inactive
Potency [1]: inactive
Potency [5]: inconclusive: 17.8 µM [cytotoxic, full curve]
Potency [3]: inconclusive: 60.8 µM [cytotoxic, partial curve]
Potency [17]: inconclusive: 27.1 µM [falling, partial curve]
Potency [9]: active: 54.2 µM

CC1(N)CCC(C(C)(C)N)CC1 (centres undefined)
Potency [18]: inactive
Potency [2]: inactive

FC(F)(F)C(F)(F)C(F)(F)C(F)(F)C(F)(F)C(F)(F)C(F)(F)C(F)(F)Br
Potency [12]: inactive

CC(=O)Nc1ccc(OCC(O)CNC(C)C)cc1 (centres undefined)
Potency [14]: inactive
Potency [10]: inactive
Potency [2]: inconclusive: 9.52 µM [rising, partial curve]

CC(=O)Nc1ccc(S(=O)(=O)Nc2ccc([N+](=O)[O-])cc2)cc1
Potency [15]: inconclusive: 0.0034 µM [cytotoxic, full curve, poor fit]
Potency [3]: active: 23.7 µM
Potency [19]: inconclusive: 0.298 µM [cytotoxic, single point]
Potency [9]: inconclusive: 26.6 µM [cytotoxic, partial curve]
Potency [4]: active: 29.8 µM

Cc1cnc(C(=O)NCCc2ccc(S(=O)(=O)NC(=O)NC3CCCCC3)cc2)cn1
Potency [7]: inconclusive: 12.3 µM [cytotoxic, single point]
Potency [2]: inconclusive: 12.3 µM [cytotoxic, single point]

CCCCCCCCCCCCCCCCO
Potency [5]: inactive
Potency [11]: inconclusive: 49 µM [rising, single point]
Potency [17]: inactive
Potency [4]: inactive

Oc1ccccc1-c1nnco1
Potency [13]: inactive
Potency [3]: inactive

CCS(=O)(=O)CCn1c([N+](=O)[O-])cnc1C
Potency [6]: inactive

NC(=O)c1ccc(N)cc1
Potency [14]: inactive

COc1cc2c(cc1OC)C(=O)C(CC1CCN(Cc3ccccc3)CC1)C2 (centres undefined)
Potency [8]: inconclusive: 4.77 µM [rising, partial curve]
activity change, negative = inhibition [14]: inconclusive: 22.5%
Potency [2]: inconclusive: 23.9 µM [cytotoxic, partial curve]

CN1C(=O)CC(c2ccccc2)C1=O (centres undefined)
Potency [10]: inactive

CC(C)=CCC/C(C)=C/C#N
Potency [14]: inactive
Potency [9]: inactive

O=C(O)c1ccccc1C(=O)OCc1ccccc1
activity change, negative = inhibition [8]: inconclusive: 13.5%

O=C1C(c2[nH]c3ccccc3c2O)=Nc2ccccc21
Potency [14]: inactive
Potency [11]: inconclusive: 42.5 µM [rising, partial curve, poor fit]

CN1CCN(c2cc3c(nn2)Oc2ccccc2N3C)CC1
Potency [18]: inactive
activation (H2AX phosphorylation) [5]: inconclusive: 6.82% [at 31.6 µM]
activity change, negative = cytotoxicity [7]: inactive: 0.378% [at 15.8 µM]
activity change, negative = inhibition [17]: inconclusive: -2.91% [at 19 µM]
